Assay results published in PMC6919601, “Identification of Plasmodium dipeptidyl aminopeptidase allosteric inhibitors by high throughput screening” (PLoS ONE, 2019).
Where “and” joins values, the source holds several entries; their conditions need not be identical. Equal entries are not always repeated. The whole screen tested about 110,000 compounds, of which about 230 (0.21%) showed an effect of 50% or more. Some of the results follow.

What follows are molecules tested against DPAP1 (Plasmodium falciparum, UniProt Q8IIJ9) (assay: primary screen, percent inhibition; read by cleavage of a fluorogenic dipeptide substrate; higher = more effect of the substance).
DPAP1, sequence (Q8IIJ9 whole entry, looked up): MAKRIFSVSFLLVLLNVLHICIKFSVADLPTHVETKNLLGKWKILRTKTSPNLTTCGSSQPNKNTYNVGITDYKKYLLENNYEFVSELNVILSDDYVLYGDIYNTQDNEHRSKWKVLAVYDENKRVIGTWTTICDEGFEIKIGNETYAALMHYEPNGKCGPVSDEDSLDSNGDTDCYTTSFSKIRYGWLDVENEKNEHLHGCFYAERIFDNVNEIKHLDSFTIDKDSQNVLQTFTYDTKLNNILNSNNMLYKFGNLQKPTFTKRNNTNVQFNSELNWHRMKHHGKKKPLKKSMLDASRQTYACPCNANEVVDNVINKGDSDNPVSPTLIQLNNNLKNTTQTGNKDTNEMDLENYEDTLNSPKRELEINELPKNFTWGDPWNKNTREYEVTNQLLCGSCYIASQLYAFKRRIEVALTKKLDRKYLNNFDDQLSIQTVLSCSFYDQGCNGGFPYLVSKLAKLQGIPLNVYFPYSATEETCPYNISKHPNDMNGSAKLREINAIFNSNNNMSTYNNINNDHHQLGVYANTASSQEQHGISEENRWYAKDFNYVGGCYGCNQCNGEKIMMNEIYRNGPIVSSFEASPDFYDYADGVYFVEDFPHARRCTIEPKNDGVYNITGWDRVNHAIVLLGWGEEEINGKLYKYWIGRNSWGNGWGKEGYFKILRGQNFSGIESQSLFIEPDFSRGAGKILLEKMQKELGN
Parameters: species or system P. falciparum D10 trophozoite lysates; single well
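Also: 30 min substrate incubation versus DMSO and 10 µM JCP410 controls.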

SMILES | % Inhibition @ 10 uM
O=C1C2C3CCC(C3)C2C(=O)N1CNc1ccc(F)cc1 (stereo not shown) | -1.12%
CCC(C)NC(=O)C1=C(C)C(=O)OC12CCC(C)CC2 (stereo not shown) | -3.7%
COc1ccccc1CN1CCN(c2ccc(Cl)cc2)CC1 | 0.708%
O=C(CN1CCN(CCN2C(=O)c3cccc4cccc(c34)C2=O)CC1)c1ccc(Cl)cc1 | 16.8%
COc1cc(CN2CCN(Cc3cccc(Br)c3)CC2)cc2c1OCO2 | -10.1%
Cc1c(C)n(C)c2c(C)c3nc(O)cc(C(F)(F)F)c3cc12 | 5.13%
Cc1cc2nc(COc3cccc(C)c3C)cc(=O)n2o1 | -0.495%
O=C(CC(c1ccccc1)c1ccccc1)NCC1OCCc2ccccc21 (stereo not shown) | 0.685%
COc1ccc(NC(=O)CSc2nc3ccccc3o2)cc1OC | -2.8%
COC(=O)C1=C(C)N(Cc2ccc(C)cc2)C(=O)C1 | 4.55%
O=C(c1cccc(Cl)c1)N1CCC(c2nc(O)c3nnn(Cc4ccsc4)c3n2)CC1 | -1.15%
CCOCCNc1ncnc2onc(-c3ccc(Cl)cc3)c12 | 4.28%
CCN(CC)S(=O)(=O)c1ccc2ncc(C(=O)NC(C)CCc3ccccc3)c(O)c2c1 (stereo not shown) | 2.79%
C=CCNC(=O)C1CCN(S(=O)(=O)c2ccccc2)CC1 | -5.62%
COc1ccc(CN2CCCCCC2)cc1O | 1.4%
Cc1cc(CNC(=O)Cc2cccs2)c2ccccc2n1 | 6.17%
O=C(NCCc1nc2ccccc2n1CCCOc1ccccc1Cl)c1ccco1 | 0.486%
O=C(O)C1CCCCC1C(=O)NCc1ccncc1 (stereo not shown) | -0.68%
COc1ccc(NC(=O)c2sc3nc(-c4cccs4)ccc3c2N)c(OC)c1 | 5.89%
COc1cccc(C(=O)c2cn(CC(=O)NC3CCCCC3)c3nc(C)ccc3c2=O)c1 | 2.86%
CC1CCc2c(C(=O)NCCN3CCOCC3)csc2C1 (stereo not shown) | 1.93%
CN1CCCN(Cc2ccc(Cl)cc2)CC1 | 2.33%
Cc1ccccc1OCC(=O)Nc1cnn(CCCC(=O)O)c1 | 11.2%
COc1ccc(OC)c(C2CC(=O)C3=C(C2)NC(=O)CC3c2ccc3c(c2)OCO3)c1 (stereo not shown) | -0.472%
CNC(=S)NCCc1ccc(OC)c(OC)c1 | -6.88%

SMILES | % Inhibition @ 10 uM
CCOc1nc(-c2ccccc2)ccc1-c1noc(-c2ccco2)n1 | 2.1%
Cc1[nH]c2ccccc2c1C1N2CC3(C)CN1CC(c1ccccc1)(C2)C3=O (stereo not shown) | -3.24%
CC12C=CC(C)(O1)C1C(=O)N(c3cc(C(F)(F)F)ccc3Cl)C(=O)C12 (stereo not shown) | 4.65%
CCCCNc1nc(SCC(=O)NCCC(C)C)nc2ccccc12 | -0.112%
Cc1ccc(-c2nc3cc(Cl)ccc3o2)cc1NC(=O)c1cccnc1 | -3.92%
CCC(C)c1ccc(NC(=O)c2ccc(Cl)cc2)cc1 (stereo not shown) | 5.09%
Cc1cc(C)cc(N2C(=O)CSC23C(=O)N(CN2CCOCC2)c2ccccc23)c1 (stereo not shown) | -0.478%
COc1ccc(NC(=O)N2CCN(C)CC2)cc1 | 3%
COc1cccc(N2CCN(Cc3nc(N)nc(Nc4ccc(C)c(C)c4)n3)CC2)c1 | 6.98%
C/N=C1\S/C(=C\c2ccc(OCc3cccc(C(=O)O)c3)c(Br)c2)C(=O)N1C | 3.27%
Cc1ccc(OCCSc2nc(-c3ccco3)nc3cc(=O)[nH]n23)cc1Cl | 1.11%
O=C(CSCc1ccc(F)cc1)NC1CCCCCC1 | 1.97%
O=C(CSc1nc2ccsc2c(=O)n1CC1CCC(C(=O)O)CC1)Nc1nccs1 (stereo not shown) | -1.15%
Cc1cccn2c(=O)c3cc(C(=O)NC4CCCCC4)c(=N)n(CCOCCO)c3nc12 | -3.5%
CCSc1ncc(Cl)c(C(=O)Nc2nnc(CC(C)C)s2)n1 | -2.85%
Cc1cccc(S(=O)(=O)Nc2cccc(-c3cn4ccc(C)cc4n3)c2)c1 | 4.81%
CCOCCCNC(=O)Cn1ncc2c1-c1ccccc1OC2 | -2.42%
Cc1ccc2[nH]c(-c3ccccc3N)nc2c1 | 0.162%
Nc1ccc(C(=O)N2N=C(C(F)(F)F)CC2(O)c2ccc(F)cc2)cc1 (stereo not shown) | -1.44%
CCOCCCNc1nc2c(S(=O)(=O)c3ccc(Cl)cc3)nnn2c2ccccc12 | 0.291%
Cc1cc(C)c2c3c(sc2n1)C(=O)N(Cc1ccccc1)C(C)N3 (stereo not shown) | -2.57%
CCCCNc1ncc2c(n1)CC(c1ccc(C(C)(C)C)cc1)CC2=O (stereo not shown) | 1.74%
CCc1ccc(OCC(=O)Nc2ccc(CN3CCCCC3)cc2)cc1 | -4.72%
CSc1ccc(CN2CCC(N3CCCCC3)CC2)cc1 | 3.48%
CC1c2[nH]c3ccccc3c2CCN1S(C)(=O)=O (stereo not shown) | -2.14%

SMILES | % Inhibition @ 10 uM
C=C(C#N)NC(=O)[C@H](CC(C)C)NC(=O)c1cccc(Oc2ccccc2)c1 | -5.21%
Cc1ccc(NC(=O)c2cccnc2)c(NC(=O)c2cccnc2)c1 | 2.03%
CCc1ccc(-c2cc3c(=O)n(CC(=O)NCCCN4CC(C)CC(C)C4)nc(C)n3n2)cc1 (stereo not shown) | 0.623%
Cc1ccc(CN(CC(=O)N2CCc3ccccc3C2)S(=O)(=O)c2ccc(C)cc2)cc1 | -3.18%
COC(=O)C1=CN(C(C)c2ccccc2)C=C(C(=O)OC)C1c1ccc(C(=O)OC)cc1 (stereo not shown) | 2.38%
COc1ccc(C(=O)N2CCn3cccc3C2c2ccccc2)cc1OC (stereo not shown) | 0.776%
COc1ccc(Oc2nc3c(C)cccn3c(=O)c2/C=C(\C#N)C(=O)NC2CCS(=O)(=O)C2)cc1 (stereo not shown) | 2%
CCOc1ccc(/C=C/[N+](=O)[O-])cc1 | -6.22%
N=C1/C(=C/c2ccc(O)cc2)C(=O)N=C2SN=C(S(=O)(=O)Cc3ccccc3)N12 | 5.06%
CN(C(=O)Cn1cc(S(=O)(=O)Cc2ccccc2)c2ccccc21)C1CCCCC1 | -4.05%
O=C(O)CCCCCN1C(=O)C(O)=C(C(=O)c2ccc(F)cc2)C1c1ccc2c(c1)OCO2 (stereo not shown) | -7.58%
CCCc1[nH]nc2c1/C(=N\OCC)CC(C)(C)C2 | -2.55%
O=C(O)c1ccc(CNC(=O)c2ccc(NC(=O)c3ccco3)cc2)cc1 | -3.92%
COCc1[nH]nc2c1C(c1cc(OC)c(O)c(OC)c1)C(C#N)=C(N)O2 (stereo not shown) | -2.77%
COC(=O)c1c(NC(=O)C(C)C)sc2c1CCCC2 | -1.2%
COc1cc(C2C3=C(O)CCCC3=NC3=C2C(=O)CCC3)cc(Cl)c1OCC(=O)O (stereo not shown) | 2.45%
Cc1cn([C@H]2C[C@H]3OC[C@H]3O2)c(=O)[nH]c1=O | -4.4%
CCCS(=O)(=O)NCc1cn2cccc(C)c2n1 | -5.37%
CC12CC3CC(Br)(C1)CC(C(=O)O)(C3)C2 (stereo not shown) | 1.27%
COc1ccc(S(=O)(=O)N(C)CC(=O)Nc2cccc(SC)c2)cc1OC | -2.78%
Cc1nnc(SCC(=O)NC2CCCCC2)nc1O | -3.12%
COc1ccc(C2=NS(=O)(=O)N(C)C(C(=O)NCc3ccc4c(c3)OCO4)=C2)cc1OC | -1.06%
CNc1ncnc2c1C(c1ccc(Br)cc1)c1c(NC)ncnc1O2 | 0.484%
O=C(NCc1ccc2c(c1)OCO2)c1ccc2c3c(cccc13)CC2 | -5.3%
CC1CN(C)C(C)CC1OC(=O)C(c1ccccc1)c1ccccc1 (stereo not shown) | -4.18%

SMILES | % Inhibition @ 10 uM
CC(CCc1ccccc1)N1CCC(N2CCCCC2)CC1 (stereo not shown) | -3.8%
CCCCCCc1ccc(C2(C)CC(C)(C)N(C(C)=O)c3ccccc32)cc1 (stereo not shown) | 4.26%
Cc1ccc(S(=O)(=O)N(C)CC(=O)N2CCCCCC2)cc1 | 0.746% and 3.56%
Cc1cccc(C)c1NC(=O)c1cc([N+](=O)[O-])ccc1C(=O)O | 2.23%
Cc1cc(C)c2c(CC(=O)NCCc3ccccc3)coc2c1 | -2.28%
CCc1ccc(C2c3c(oc4ccccc4c3=O)C(=O)N2c2nc(C)c(C)s2)cc1 (stereo not shown) | -1.86%
Cc1ccc(NC(=O)CSCc2ccc(F)cc2)cc1 | 0.722%
COc1ccc(C2C(=O)c3ccccc3C2=O)c(OC)c1 | -3.58%
C=CCOc1ccc(Cl)cc1CNCCCO | 0.188%
CCOc1cccc2cc(-c3csc(NC(=O)CCC(=O)NC4CCC(C)CC4)n3)c(=O)oc12 (stereo not shown) | 3.21%
CCCCOc1ccc(N2C(=O)CC(N3CCN(c4ncccn4)CC3)C2=O)cc1 (stereo not shown) | -1.98%
CCC(=O)NS(=O)(=O)c1cccnc1Nc1ccc(Cl)cc1 | 1.94%
Cc1cccc(C)c1NC(=O)c1cnoc1C | 6.61%
COCC(C)NC(=O)c1cc(-c2ccccc2F)no1 (stereo not shown) | -5.11%
Oc1ccc(/C=N/CC2COc3ccccc3O2)cc1 (stereo not shown) | 0.685%
CCN1CCN(C(=O)c2c(-c3ccccc3Cl)noc2C)CC1 | -0.622%
O=C1C(c2ccccc2F)N(C2CCCCC2)C(=O)CN1C1CCCCCC1 (stereo not shown) | 2.79%
COc1cccc(C2Nc3ccccc3N=C3CC(c4cccs4)CC(O)=C32)c1OC (stereo not shown) | 2.32%
CCOc1ccc(NC(=O)COc2cc(C)ccc2C)cc1 | -4.62%
O=C(CCn1c(=O)c2cccn2c2cccnc21)NCCCN1CCC(N2CCCCC2)CC1 | 2.3%
CC(C(=O)O)n1c2ccccc2c2cnnc(O)c21 (stereo not shown) | -0.0309%
C=CCn1c(S)nnc1-c1ccc(Cl)cc1Cl | 1.27%
CC1Cn2c(nc(=O)c3c2NCN(CCc2ccccc2)C3)S1 (stereo not shown) | -3.34%
Cc1nn(C)cc1CN(C)S(=O)(=O)c1c(C)c(C)c(C)c(C)c1C | 2.4%
CCOC(=O)N1CCN(C(=O)c2cc3c(s2)-c2ccc(Cl)cc2S(=O)(=O)C3)CC1 | 0.953%
